This is one part of the list.
Tests used:
[1] = tested on: HSkMC (human skeletal muscle cells); test: cytotoxicity call (relative viability < 0.9); conditions: 10 µM
[2] = tested on: S. aureus RN4220; test: growth inhibition call (relative growth <= 0.2); conditions: 50 µM

| Compound | cytotoxicity call [1] | growth inhibition call [2] |
| --- | --- | --- |
| C[C@H](CO)N1C[C@H](C)[C@H](CN(C)S(=O)(=O)c2ccc(C#N)cc2)Oc2ncc(C#CC(C)(C)O)cc2C1=O | inactive | inactive |
| Cc1nc2c(cc1C(=O)NN)c(=O)n(C)c(=O)n2C | inactive | inactive |
| Nc1cc2[nH]cnc2c(O)n1 | inactive | inactive |
| C[C@@H]1CN([C@@H](C)CO)C(=O)c2cc(NC(=O)C3CCCCC3)ccc2O[C@@H](C)CCCCO[C@@H]1CN(C)Cc1ccc(Cl)c(Cl)c1 | inactive | inactive |
| COc1ccc(NC(=O)N(C)C[C@H]2OCCCC[C@H](C)Oc3ccc(NC(=O)Nc4ccc(F)cc4)cc3C(=O)N([C@@H](C)CO)C[C@H]2C)cc1 | inactive | inactive |
| C[C@H]1CN([C@@H](C)CO)C(=O)CCCn2nncc2CO[C@@H]1CN(C)C(=O)c1cc(-c2ccccc2)on1 | inactive | inactive |
| CN1CCN(C(=O)C[C@@H]2CC[C@H]3[C@@H](COC[C@@H](O)CN3C(=O)C3CCOCC3)O2)CC1 | inactive | inactive |
| COc1ccc(S(=O)(=O)N(C)C[C@@H]2Oc3ccc(NS(=O)(=O)c4cn(C)cn4)cc3CC(=O)N([C@@H](C)CO)C[C@@H]2C)cc1 | inactive | inactive |
| COc1ccnc(N)c1 | inactive | inactive |
| COc1ccc(S(=O)(=O)N(C)C[C@H]2OCCCC[C@H](C)Oc3ccc(NC(=O)c4ccccc4)cc3C(=O)N([C@H](C)CO)C[C@H]2C)cc1 | inactive | inactive |
| N#C[C@H]1N[C@H](CO)[C@H]1c1ccccc1 | inactive | inactive |
| O=c1oc2ccccc2c(O)c1Cc1c(O)c2ccccc2oc1=O | inactive | active |
